# Assay results published in the supplement of paper PMC8728848.
# The other results are listed elsewhere or left out.
# B1: ConA (Canavalia ensiformis), P02866 (protein)
# chain: MAISKKSSLFLPIFTFITMFLMVVNKVSSSTHETNALHFMFNQFSKDQKDLILQGDATTGTDGNLELTRVSSNGSPQGSSVGRALFYAPVHIWESSAVVASFEATFTFLIKSPDSHPADGIAFFISNIDSSIPSGSTGRLLGLFPDANVIRNSTTIDFNAAYNADTIVAVELDTYPNTDIGDPSYPHIGIDIKSVRSKKTAKWNMQNGKVGTAHIIYNSVDKRLSAVVSYPNADSATVSYDVDLDNVLPEWVRVGLSASTGLYKETNTILSWSFTSKLKSNEIPDIATVV
# Experiments:
# Assay in all cases: glycan array binding signal (z-score within array); higher = stronger binding
# Conditions in all cases: glycan notation: IUPAC condensed, linker removed
# [1] = target: Neu5Ac(a2-6)Gal(b1-4)GlcNAc(b1-2)Man(a1-6)[GlcNAc(b1-2)Man(a1-3)]Man(b1-4)GlcNAc(b1-4)GlcNAc
# How it was run: (§1)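 The binding signal is a Z-score computed within each array and averaged over linkers. Arrays of the same protein sequence at different concentrations or buffers were also averaged together. Data originate from 3228 arrays in the Consortium for Functional Glycomics database, kept only where the protein sequence was available.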
# [2] = target: Neu5Ac(a2-6)Gal(b1-4)GlcNAc(b1-2)Man(a1-6)[Man(a1-3)]Man(b1-4)GlcNAc(b1-4)GlcNAc
# How it was run: as §1
# [3] = target: Neu5Ac(a2-6)Gal(b1-4)GlcNAc(b1-3)Gal(b1-3)GlcNAc
# How it was run: as §1
# [4] = target: Neu5Ac(a2-6)Gal(b1-4)GlcNAc(b1-3)Gal(b1-4)GlcNAc
# How it was run: as §1
# [5] = target: Neu5Ac(a2-6)Gal(b1-4)GlcNAc(b1-3)Gal(b1-4)GlcNAc(b1-3)Gal(b1-4)GlcNAc
# How it was run: as §1
# [6] = target: Neu5Ac(a2-6)Gal(b1-4)GlcNAc(b1-3)Gal(b1-4)[Fuc(a1-3)]GlcNAc(b1-3)Gal(b1-4)[Fuc(a1-3)]GlcNAc
# How it was run: as §1
# [7] = target: Neu5Ac(a2-6)Gal(b1-4)GlcNAc(b1-3)GalNAc
# How it was run: as §1
# [8] = target: Neu5Ac(a2-6)Gal(b1-4)GlcNAc6S
# How it was run: as §1
# Neu5Ac(a2-6)GalNAc = target: Neu5Ac(a2-6)GalNAc
# How it was run: as §1
# [9] = target: Neu5Ac(a2-6)GalNAc(b1-4)GlcNAc
# How it was run: as §1
# [10] = target: Neu5Ac(a2-6)GlcNAc(b1-4)GlcNAc
# How it was run: as §1
# [11] = target: Neu5Ac(a2-6)GlcNAc(b1-4)GlcNAc(b1-4)GlcNAc
# How it was run: as §1
# Neu5Ac(a2-8)Neu5Ac = target: Neu5Ac(a2-8)Neu5Ac
# How it was run: as §1
# [12] = target: Neu5Ac(a2-8)Neu5Ac(a2-3)Gal(b1-3)GalNAc(b1-4)[Neu5Ac(a2-8)Neu5Ac(a2-3)]Gal(b1-4)Glc
# How it was run: as §1
# [13] = target: Neu5Ac(a2-8)Neu5Ac(a2-3)Gal(b1-4)Glc
# How it was run: as §1
# [14] = target: Neu5Ac(a2-8)Neu5Ac(a2-3)[Gal(b1-3)GalNAc(b1-4)]Gal(b1-4)Glc
# How it was run: as §1
# [15] = target: Neu5Ac(a2-8)Neu5Ac(a2-3)[GalNAc(b1-4)]Gal(b1-4)Glc
# How it was run: as §1
# [16] = target: Neu5Ac(a2-8)Neu5Ac(a2-8)Neu5Ac
# How it was run: as §1
# [17] = target: Neu5Ac(a2-8)Neu5Ac(a2-8)Neu5Ac(a2-3)Gal(b1-4)Glc
# How it was run: as §1
# [18] = target: Neu5Ac(a2-8)Neu5Ac(a2-8)Neu5Ac(a2-3)[GalNAc(b1-4)]Gal(b1-4)Glc
# How it was run: as §1
# [19] = target: Neu5Ac(a2-8)Neu5Ac(a2-8)Neu5Ac(a2-8)Neu5Ac(a2-3)[GalNAc(b1-4)]Gal(b1-4)Glc
# How it was run: as §1
# Neu5Ac(b1-6)GalNAc = target: Neu5Ac(b1-6)GalNAc
# How it was run: as §1
# [20] = target: Neu5Ac(b2-6)Gal(b1-4)GlcNAc
# How it was run: as §1
# Neu5Ac(b2-6)GalNAc = target: Neu5Ac(b2-6)GalNAc
# How it was run: as §1
# [21] = target: Neu5Ac9Ac(a2-3)Gal(b1-3)GlcNAc
# How it was run: as §1
# [22] = target: Neu5Ac9Ac(a2-3)Gal(b1-4)GlcNAc
# How it was run: as §1
# [23] = target: Neu5Ac9Ac(a2-6)Gal(b1-4)GlcNAc
# How it was run: as §1
# [24] = target: Neu5Gc(a2-3)Gal(b1-3)GlcNAc
# How it was run: as §1
# [25] = target: Neu5Gc(a2-3)Gal(b1-3)[Fuc(a1-4)]GlcNAc
# How it was run: as §1
# Neu5Gc(a2-3)Gal(b1-4)Glc = target: Neu5Gc(a2-3)Gal(b1-4)Glc
# How it was run: as §1
# [26] = target: Neu5Gc(a2-3)Gal(b1-4)GlcNAc
# How it was run: as §1
# [27] = target: Neu5Gc(a2-3)Gal(b1-4)[Fuc(a1-3)]GlcNAc
# How it was run: as §1
# [28] = target: Neu5Gc(a2-6)Gal(b1-4)GlcNAc
# How it was run: as §1
# Neu5Gc(a2-6)GalNAc = target: Neu5Gc(a2-6)GalNAc
# How it was run: as §1
# [29] = target: Neu5Gc(b2-6)Gal(b1-4)GlcNAc
# How it was run: as §1
binder,measurement,setting,value
B1,glycan array binding signal (z-score),[1],-0.11
same,glycan array binding signal (z-score),[2],0.287
same,glycan array binding signal (z-score),[3],-0.218
same,glycan array binding signal (z-score),[4],-0.285
same,glycan array binding signal (z-score),[5],-0.222
same,glycan array binding signal (z-score),[6],0.022
same,glycan array binding signal (z-score),[7],-0.15
same,glycan array binding signal (z-score),[8],-0.278
same,glycan array binding signal (z-score),Neu5Ac(a2-6)GalNAc,-0.275
same,glycan array binding signal (z-score),[9],-0.213
same,glycan array binding signal (z-score),[10],-0.226
same,glycan array binding signal (z-score),[11],-0.184
same,glycan array binding signal (z-score),Neu5Ac(a2-8)Neu5Ac,-0.272
same,glycan array binding signal (z-score),[12],-0.188
same,glycan array binding signal (z-score),[13],-0.296
same,glycan array binding signal (z-score),[14],-0.226
same,glycan array binding signal (z-score),[15],-0.282
same,glycan array binding signal (z-score),[16],-0.26
same,glycan array binding signal (z-score),[17],-0.309
same,glycan array binding signal (z-score),[18],0.018
same,glycan array binding signal (z-score),[19],-0.223
same,glycan array binding signal (z-score),Neu5Ac(b1-6)GalNAc,-0.292
same,glycan array binding signal (z-score),[20],-0.328
same,glycan array binding signal (z-score),Neu5Ac(b2-6)GalNAc,-0.258
same,glycan array binding signal (z-score),[21],-0.303
same,glycan array binding signal (z-score),[22],-0.009
same,glycan array binding signal (z-score),[23],-0.243
same,glycan array binding signal (z-score),[24],-0.266
same,glycan array binding signal (z-score),[25],-0.226
same,glycan array binding signal (z-score),Neu5Gc(a2-3)Gal(b1-4)Glc,-0.227
same,glycan array binding signal (z-score),[26],-0.258
same,glycan array binding signal (z-score),[27],-0.102
same,glycan array binding signal (z-score),[28],-0.228
same,glycan array binding signal (z-score),Neu5Gc(a2-6)GalNAc,-0.28
same,glycan array binding signal (z-score),[29],-0.244
